Assay results published in ChEMBL document CHEMBL4888484, “Replenishing the malaria drug discovery pipeline: Screening and hit evaluation of the MMV Hit Generation Library 1 (HGL1) against asexual blood stage Plasmodium falciparum ,using a nano luciferase reporter read-out” (2022).
Out of some 150,000 compounds screened, about 540 (0.36%) showed an effect of 50% or more. This is one part of the list.

System: Plasmodium falciparum
Assay: Primary screen in NF54 nanoGlo assay, in single point, at 2uM, 72h; a lower Z score goes with more inhibition
Assay type: functional, Erythrocyte
Conditions: timepoint 72 hour

Structure (SMILES) | % Inhibition | Z score
Clc1ccc(-c2csc3ncnc(NC4CCCCCCC4)c23)cc1 | -2% | 0.29
COc1ccc(CN2C(=O)COC[C@H]2C(=O)N2CCC(C)CC2)cc1OC | -2% | 0.28
O=C(CCN1CCN(c2ccc(O)cc2)CC1)NC1CCCCC1 | 0% | -0.05
C[C@H](NC(=O)c1cncs1)c1nnc(N)s1 | 1% | -0.17
N#Cc1cnn2cc(-c3cc(NCc4cccnc4)nc4[nH]ccc34)cnc12 | -13% | 2.56
O=c1[nH]cnc2c1cnn2Cc1ccc(F)cc1 | -12% | 1.4
CC[C@H]1c2cccn2CCN1Cc1cc(C(N)=O)cs1 | -9% | 1.16
CC(=O)N1CCCN(c2ccc(F)cc2NC(=O)N2CCC[C@@H]2CO)CC1 | -2% | 0.31
O=C(NC1CC1)c1cccc(S(=O)(=O)N2CCOCC23CCC3)c1 | 19% | -2.44
CO[C@@H](C)CNS(=O)(=O)c1c(Cl)ccc(F)c1F | -15% | 1.23
Nc1nc(N2CCN(Cc3ccc(Cl)o3)CC2)cc(=O)[nH]1 | -9% | 1.15
O=C1CC2(CCN(CCOCc3ccccc3)CC2)CN1 | 10% | -0.92
O=C1C2C(c3ccccc3)C=CC(c3ccccc3)C2C(=O)N1CCc1ccccc1 (stereo unspecified) | -1% | 0.17
Cc1cnc(CCN(C)Cc2cnc3c(C)cccn23)s1 | -5% | 0.45
Nc1nnnn1CC(=O)N[C@H]1CC(=O)Nc2ccccc21 | 10% | -1.71
CO[C@@]12CC[C@@H](O)C[C@@H]1N(C(=O)c1ccc(-c3ccco3)cc1)CC2 | -1% | 0.12
CCOc1ccccc1NC(=O)c1cn2c(n1)CCCC2 | -7% | 1.13
Cc1csc(CN(C)Cc2ccc(CN(C)C)cc2)n1 | 0% | -0.03
FC1(F)CC(CN2CCc3[nH]ncc3C2)C1 | -1% | 0.16
CN(Cc1ccncc1)c1ccc(Cl)c(C#N)n1 | -8% | 1.12
CC(=O)Nc1cc(Cl)c(NC(=O)[C@H]2CCCO2)c(Cl)c1 | -6% | 0.81
CCCC(=O)N1CCN(c2cc(NCC)nc(C)n2)CC1 | 0% | 0.01

Structure (SMILES) | % Inhibition | Z score
Cc1cnn(CC(=O)NCCn2c(C)cnc2C2CC2)c1 | -7% | 1.2
N#CCN(CC=Cc1ccccc1)C1CC1 | -17% | 2.63
Cc1nnc2n(CCOc3ccc(F)cc3)c3ccccc3n2c1=O | -8% | 1.54
COc1c(F)c(F)cc(C(=O)N2CC3CC2CS3(=O)=O)c1F (stereo unspecified) | -10% | 1.19
CCC(C(N)=O)N1CCCC1c1cccc(N(C)C)c1 (stereo unspecified) | -3% | 0.53
CC1CN(C(=O)c2ccc3[nH]c(=O)[nH]c3c2)C1c1ccccc1 (stereo unspecified) | -3% | 0.52
N#Cc1cccnc1NCc1cccnc1-n1cnc2ccccc21 | 4% | -0.59
CN(Cc1cnccn1)C(=O)NC1CCCC1c1ccc(Cl)cc1 (stereo unspecified) | -29% | 3.34
NC(=O)c1cnn(CC(=O)Nc2cccc(C(=O)NC3CC3)c2)c1 | 0% | 0.01
O=C(CC1CCOCC1)NC1CNCCC1c1ccc(F)c(F)c1 (stereo unspecified) | -10% | 1.58
Cc1nc2n(n1)CCC[C@@H]2NC(=O)NCc1csc(C(C)(C)C)n1 | 1% | -0.08
O=C1CCCN1c1ccc(NS(=O)(=O)c2cccnc2)cc1 | -17% | 2.52
CCc1nc2ccc(-c3noc(-c4ccsc4)n3)cc2n1CC | -19% | 3.3
Fc1ccc(CN2CCC3(CCO3)CC2)cc1F | -8% | 1.24
C[C@@H]1CN(C[C@@H]2CN(C(=O)CCc3cccs3)C[C@@H]2CO)C[C@H](C)O1 | -3% | 0.3
CNc1snc(C)c1C(=O)OCc1cn2ccccc2c1C#N | -9% | 1.78
C/C(=C/c1scc(-c2ccccc2)[n+]1-c1ccccc1)Nc1ccc(C)cc1 | -7% | 1.33
COc1ccc(NC(=O)Cn2ccnc2-c2ccnc(N3CCOCC3)c2)cc1OC | 11% | -1.28
O=C(NC[C@H]1CCCCS1(=O)=O)N1CC(F)C1 | -1% | 0.21
Cc1ccc(NS(=O)(=O)c2cc(-c3nc(C)cs3)n(C)c2C)c(C)c1 | -1% | 0.09
CC1=C(C(=O)Nc2ccc3nc(N4CCCC4)sc3c2)CCCO1 | -9% | 1.24
CC(C)N(C)S(=O)(=O)NCCCn1ccccc1=O | -9% | 1.2

Structure (SMILES) | % Inhibition | Z score
Cc1cccc(CN2CCN(C)[C@H](c3ccccc3)C2)n1 | 1% | -0.15
CN(c1cccc(C(=O)NCc2ccc(N3CCOCC3)cc2)c1)S(C)(=O)=O | -4% | 0.5
Cc1occc1C(=O)NCC(=O)NCC1(O)CCCCCC1 | -9% | 1.19
CCOc1ccccc1Cn1nnnc1N1CCCOCC1 | 11% | -1.1
O=C(CCCS(=O)(=O)Cc1ccccc1)Nc1ccc(F)cc1 | -3% | 0.58
Nc1nc(N2CCN(c3ccc(F)c(Cl)c3)CC2)cc([C@H]2C[C@@H](N)C2)n1 | 49% | -3.16
CC(O)CNC(=NCC1CCCO1)NCc1ccccc1 (stereo unspecified) | -5% | 0.66
CC[C@H]1CN(Cc2ccc(Cn3cccn3)cc2)CCN1C(C)C | -11% | 1.37
Cc1cc(C(N)=O)c(-c2cccc(C(=O)N3C[C@@H](C)O[C@@H](C)C3)c2)nc1C | -9% | 1.19
COc1cccc(C[C@]2(C(=O)O)CCCN(Cc3cccnc3)C2)c1 | -11% | 0.99
Cc1onc(-c2ccccn2)c1C(=O)NCCc1c[nH]c2ccccc12 | 7% | -1.24
C[C@H]1CCc2nn(Cc3cccnc3)c(=O)cc2C1 | -9% | 1.18
CC(C)N(CC1CC2C=CC1C2)C(=O)c1cccc(OCC(N)=O)c1 (stereo unspecified) | -10% | 1.38
CC(C)(C)NC(=O)c1coc(COc2ccc3ncccc3c2)n1 | -9% | 0.86
O=C(c1cccc(-n2cnnn2)c1)N1CCCC[C@H](c2ccccc2)C1 | -7% | 1.3
O=C(Nc1cccc(Cl)c1)Nc1cccc(-c2cc3ccccc3[nH]2)c1 | -11% | 1.32
CN(Cc1cc(-c2ccccc2)on1)C(=O)C[C@H]1CCOC1 | -2% | 0.15
CC(C)c1cc(NS(=O)(=O)c2ccc(S(=O)(=O)NC3CC3)cc2)[nH]n1 | -8% | 1.02
Cc1c(C(=O)NC[C@H]2Cc3ccccc3O2)ccc2cncn12 | -14% | 1.87
COc1ccccc1O[C@@H](C)CNc1ccccn1 | -3% | 0.39
CC1=C[C@@H](c2ccc(Cl)cc2)n2nc(NC(=O)c3ccccc3)nc2N1 | -6% | 1.14
O=C1C[C@@H](c2ccccc2)N(C(=O)c2nccc3ccccc23)CCN1 | -2% | 0.32

Structure (SMILES) | % Inhibition | Z score
CC1(C)Cc2nc3ccccc3c(NCc3ccccc3)c2[C@@H](O)C1 | 41% | -4.99
CCn1cc(Br)cc1C(=O)N[C@H]1CCc2nccn2C1 | -3% | 0.65
CCc1ccc(C(=O)N2CCC(C(C)(C)O)CC2)[nH]1 | -2% | 0.31
Cc1ccsc1C(=O)N1CCN(C[C@H](OCc2ccc(C#N)cc2)c2cccc(N3CCCC3)c2)CC1 | 0% | -0.01
Cc1cc(C)n([C@@H](C)C(=O)NCCc2nnc(N)s2)n1 | 0% | -0.03
Cc1cn[nH]c1NC(=O)Nc1ccccn1 | -12% | 1.29
COCC1(CNC(=O)CNC(C)=O)CCCC1 | -5% | 0.85
CC(C)n1nc(O)c2c(-c3cnn(C)c3)c3c(nc21)[nH]c(=O)n3C | 5% | -0.65
Cc1cc(C(=O)N2CCCNC(=O)[C@@H]2Cc2ccccc2)ns1 | -2% | 0.31
CC(C)NC(=O)Nc1nc2cc3c(cc2s1)OCCO3 | -8% | 0.95
CC1(C)C(=O)NCCN1C(=O)c1n[nH]c2c1CCC2 | -9% | 1.02
C[C@@H]1CC=CC[C@H]1C(=O)NS(=O)(=O)c1ccnn1C | -9% | 1.49
O=C(NCCn1cc(-c2nc(-c3cccnc3)no2)nn1)c1cccs1 | -18% | 3.4
CN1CCC[C@@H]1CCn1ccnc1-c1cc(C(C)(C)C)[nH]n1 | -1% | 0.08
C[C@H](NCCS(=O)(=O)C(C)(C)C)C1CCC1 | 0% | 0.03
COCCCN(Cc1cccc(OC)c1)C(=O)c1coc(CN)n1 | -2% | 0.41
Cc1ccc(C(=O)N/C(=N/c2ccc3c(c2)OCCO3)NCc2c(C)nn(C)c2C)cc1 | -5% | 0.85
COc1cc2c(cc1[C@H]1CC(=O)Nc3c1c(C1CC1)nn3C)OCCCO2 | -12% | 2.34
Cc1cnc(C(C)CNC(=O)N2CCN(C3CCOCC3)C[C@H]2C)s1 (stereo partly specified) | -6% | 0.78
CC(C)NC1CCN(Cc2sncc2Br)CC1 | -36% | 4.22
CCNC(=O)CN(CC)C1CC2CCC1C2 (stereo unspecified) | -5% | 0.48
NCC1CCCC1NC(=O)c1ccc(-c2ccccc2F)o1 (stereo unspecified) | 4% | -0.44
